In the supplement of paper PMC9927326:

Key:
Assay in all cases: CLSI broth microdilution.
itraconazole = compound: CCC(C)n1ncn(-c2ccc(N3CCN(c4ccc(OCC5COC(Cn6cncn6)(c6ccc(Cl)cc6Cl)O5)cc4)CC3)cc2)c1=O [itraconazole]
posaconazole = compound: CC[C@@H]([C@H](C)O)n1ncn(-c2ccc(N3CCN(c4ccc(OC[C@@H]5CO[C@@](Cn6cncn6)(c6ccc(F)cc6F)C5)cc4)CC3)cc2)c1=O [posaconazole]
micafungin = compound: CCCCCOc1ccc(-c2cc(-c3ccc(C(=O)N[C@H]4C[C@@H](O)[C@@H](O)NC(=O)[C@@H]5[C@@H](O)[C@@H](C)CN5C(=O)[C@H]([C@H](O)CC(N)=O)NC(=O)[C@H]([C@H](O)[C@@H](O)c5ccc(O)c(OS(=O)(=O)O)c5)NC(=O)[C@@H]5C[C@@H](O)CN5C(=O)[C@H]([C@@H](C)O)NC4=O)cc3)no2)cc1 [micafungin]
fluconazole = compound: OC(Cn1cncn1)(Cn1cncn1)c1ccc(F)cc1F [fluconazole]
voriconazole = compound: C[C@@H](c1ncncc1F)[C@](O)(Cn1cncn1)c1ccc(F)cc1F [voriconazole]
caspofungin = compound: CC[C@H](C)C[C@H](C)CCCCCCCCC(=O)N[C@H]1C[C@@H](O)[C@@H](NCCN)NC(=O)[C@@H]2[C@@H](O)CCN2C(=O)[C@H]([C@H](O)CCN)NC(=O)[C@H]([C@H](O)[C@@H](O)c2ccc(O)cc2)NC(=O)[C@@H]2C[C@@H](O)CN2C(=O)[C@H]([C@@H](C)O)NC1=O [caspofungin]
flucytosine = compound: Nc1[nH]c(=O)ncc1F [flucytosine]
amphotericin B = compound: C[C@@H]1[C@H](O)[C@@H](C)/C=C/C=C/C=C/C=C/C=C/C=C/C=C/[C@H](O[C@@H]2O[C@H](C)[C@@H](O)[C@H](N)[C@@H]2O)C[C@@H]2O[C@](O)(C[C@@H](O)C[C@@H](O)[C@H](O)CC[C@@H](O)C[C@@H](O)CC(=O)O[C@H]1C)C[C@H](O)[C@H]2C(=O)O [amphotericin B]
anidulafungin = compound: CCCCCOc1ccc(-c2ccc(-c3ccc(C(=O)N[C@H]4C[C@@H](O)[C@@H](O)NC(=O)[C@@H]5[C@@H](O)[C@@H](C)CN5C(=O)[C@H]([C@@H](C)O)NC(=O)[C@H]([C@H](O)[C@@H](O)c5ccc(O)cc5)NC(=O)[C@@H]5C[C@@H](O)CN5C(=O)[C@H]([C@@H](C)O)NC4=O)cc3)cc2)cc1 [anidulafungin]

| Test System | MIC (itraconazole) | MIC (posaconazole) | MIC (micafungin) | MIC (fluconazole) | MIC (voriconazole) | MIC (caspofungin) | MIC (flucytosine) | MIC (amphotericin B) | MIC (anidulafungin) |
| --- | --- | --- | --- | --- | --- | --- | --- | --- | --- |
| Candida albicans isolate 284 (Erg11p: WT, Fur1p: WT, Tac1p: WT) | 0.03 mg/L [S] | 0.015 mg/L [S] | 0.015 mg/L [S] | 0.5 mg/L [S] | ≤ 0.008 mg/L [S] | 0.06 mg/L [S] | ≤ 0.06 mg/L [S] | 0.5 mg/L [S] | 0.12 mg/L [S] |
| Candida albicans isolate 253 (Erg11p: Y132H,T123I, Fur1p: R101C, Tac1p: WT) | 0.12 mg/L [S] | 0.06 mg/L [S] | ≤ 0.008 mg/L [S] | 4 µg/mL | 0.5 µg/mL | 0.015 mg/L [S] | 0.5 mg/L [S] | 0.5 mg/L [S] | ≤ 0.015 mg/L [S] |
| Candida albicans isolate 360 (Erg11p: WT, Fur1p: WT, Tac1p: I558V,A377V,F189S,N174D,M170I,K87N) | ≤ 0.015 mg/L [S] | 0.015 mg/L [S] | ≤ 0.008 mg/L [S] | ≤ 0.12 mg/L [S] | ≤ 0.008 mg/L [S] | 0.03 mg/L [S] | ≤ 0.06 mg/L [S] | 0.5 mg/L [S] | ≤ 0.015 mg/L [S] |
| Candida albicans isolate 345 (Erg11p: WT, Fur1p: WT, Tac1p: I558V,A377V,F189S,N174D,M170I,K87N) | 0.03 mg/L [S] | 0.03 mg/L [S] | 0.015 mg/L [S] | 0.25 mg/L [S] | ≤ 0.008 mg/L [S] | 0.03 mg/L [S] | ≤ 0.06 mg/L [S] | 0.5 mg/L [S] | ≤ 0.015 mg/L [S] |
| Candida albicans isolate 244 (Erg11p: G129A, Fur1p: WT, Tac1p: R869Q,L695F,R688*,I558V,A377V,F189S,M170V,L131I) | 0.03 mg/L [S] | 0.03 mg/L [S] | 0.015 mg/L [S] | 0.5 mg/L [S] | ≤ 0.008 mg/L [S] | 0.015 mg/L [S] | ≤ 0.06 mg/L [S] | 0.25 mg/L [S] | ≤ 0.015 mg/L [S] |
| Candida albicans isolate 80 (Erg11p: E266D, Fur1p: WT, Tac1p: N896S,I558V,A377V,F189S,N174D,M170I,K87N) | 0.06 mg/L [S] | 0.03 mg/L [S] | 0.03 mg/L [S] | 0.5 mg/L [S] | ≤ 0.008 mg/L [S] | 0.12 mg/L [S] | ≤ 0.06 mg/L [S] | 0.5 mg/L [S] | 0.12 mg/L [S] |
| Candida albicans isolate 275 (Erg11p: V488I,E266D, Fur1p: WT, Tac1p: N896S) | ≤ 0.015 mg/L [S] | 0.015 mg/L [S] | ≤ 0.008 mg/L [S] | 0.25 mg/L [S] | ≤ 0.008 mg/L [S] | 0.015 mg/L [S] | ≤ 0.06 mg/L [S] | 0.25 mg/L [S] | ≤ 0.015 mg/L [S] |
| Candida albicans isolate 218 (Erg11p: WT, Fur1p: WT, Tac1p: N896S) | ≤ 0.015 mg/L [S] | 0.015 mg/L [S] | ≤ 0.008 mg/L [S] | 0.25 mg/L [S] | ≤ 0.008 mg/L [S] | 0.015 mg/L [S] | ≤ 0.06 mg/L [S] | 0.5 mg/L [S] | ≤ 0.015 mg/L [S] |
| Candida albicans isolate 57 (Erg11p: V488I,T486I,E266D, Fur1p: WT, Tac1p: N896S,I558V,A377V,F189S,N174D,M170I,K87N) | ≤ 0.015 mg/L [S] | 0.015 mg/L [S] | 0.015 mg/L [S] | 0.25 mg/L [S] | ≤ 0.008 mg/L [S] | 0.06 mg/L [S] | ≤ 0.06 mg/L [S] | 0.25 mg/L [S] | 0.03 mg/L [S] |
| Candida albicans isolate 237 (Erg11p: K342R, Fur1p: WT, Tac1p: I558V,A377V,F189S,N174D,M170I,K87N) | 0.03 mg/L [S] | 0.015 mg/L [S] | 0.015 mg/L [S] | 0.5 mg/L [S] | ≤ 0.008 mg/L [S] | 0.03 mg/L [S] | ≤ 0.06 mg/L [S] | 0.25 mg/L [S] | 0.03 mg/L [S] |
| Candida albicans isolate 356 (Erg11p: D153E, Fur1p: WT, Tac1p: N896S) | 0.03 mg/L [S] | 0.015 mg/L [S] | 0.015 mg/L [S] | 0.25 mg/L [S] | ≤ 0.008 mg/L [S] | 0.03 mg/L [S] | ≤ 0.06 mg/L [S] | 0.25 mg/L [S] | 0.03 mg/L [S] |
| Candida albicans isolate 297 (Erg11p: V488I,E266D, Fur1p: WT, Tac1p: I558V,A377V,F189S,N174D,M170I,K87N) | 0.03 mg/L [S] | 0.015 mg/L [S] | ≤ 0.008 mg/L [S] | 0.25 mg/L [S] | ≤ 0.008 mg/L [S] | 0.03 mg/L [S] | ≤ 0.06 mg/L [S] | 0.5 mg/L [S] | ≤ 0.015 mg/L [S] |
| Candida albicans isolate 333 (Erg11p: V488I,E266D, Fur1p: P119S, Tac1p: M170V) | 0.03 mg/L [S] | 0.015 mg/L [S] | ≤ 0.008 mg/L [S] | ≤ 0.12 mg/L [S] | ≤ 0.008 mg/L [S] | 0.03 mg/L [S] | ≤ 0.06 mg/L [S] | 0.5 mg/L [S] | 0.03 mg/L [S] |
| Candida albicans isolate 70 (Erg11p: F145L,A114V, Fur1p: R101C, Tac1p: H263Y) | 0.5 mg/L [R] | 0.5 mg/L [R] | 0.015 mg/L [S] | 16 mg/L [R] | 0.25 µg/mL | 0.06 mg/L [S] | 0.12 mg/L [S] | 0.5 mg/L [S] | ≤ 0.015 mg/L [S] |
| Candida albicans isolate 126 (Erg11p: V488I,E266D, Fur1p: WT, Tac1p: N896S,M170V,S108N) | ≤ 0.015 mg/L [S] | 0.015 mg/L [S] | 0.015 mg/L [S] | 0.25 mg/L [S] | ≤ 0.008 mg/L [S] | 0.06 mg/L [S] | ≤ 0.06 mg/L [S] | 0.5 mg/L [S] | ≤ 0.015 mg/L [S] |
| Candida albicans isolate 29 (Erg11p: WT, Fur1p: WT, Tac1p: A377V,F189S,N174D,M170I,K87N) | 0.06 mg/L [S] | 0.03 mg/L [S] | ≤ 0.008 mg/L [S] | ≤ 0.12 mg/L [S] | ≤ 0.008 mg/L [S] | 0.06 mg/L [S] | ≤ 0.06 mg/L [S] | 0.5 mg/L [S] | 0.06 mg/L [S] |
| Candida albicans isolate 354 (Erg11p: WT, Fur1p: WT, Tac1p: I558V,A377V,F189S,N174D,M170I,K87N) | ≤ 0.015 mg/L [S] | 0.015 mg/L [S] | 0.015 mg/L [S] | 0.25 mg/L [S] | ≤ 0.008 mg/L [S] | 0.03 mg/L [S] | ≤ 0.06 mg/L [S] | 0.25 mg/L [S] | 0.03 mg/L [S] |

MIC of clinical C. albicans isolates, CLSI broth microdilution (ranges and time not stated); higher = less susceptible. Call: susceptible or wild type [S] / resistant or non-wild type [R] by CLSI breakpoints or epidemiological cut-offs; intermediate and dose-dependent carry no call here (the paper groups them with resistant). '<=' and '>=' mark each drug's lowest and highest value, inferred; the source prints them plain. Isolates are numbered anew.
